These results are taken from PubChem BioAssay (EPA / NIEHS).

A short description of experiment [1]: ATG_E_Box_CIS: Attagene CIS-FACTORIAL HepG2 Assay for human Enhancer Box (E-box) (AID 2282936; active = hit-call score of the fitted dose curve at least 0.9, where 1 is the maximum; inactive = score below 0.9). The note with it: HepG2 E-box cis-reporter transcription, actives raise or lower the signal. The gist of the method:
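Measured 24 h post-dosing in HepG2 cells transfected with multiple cis-regulated reporter units, signal being reporter mRNA induction detected by fluorescent RT-PCR with capillary electrophoresis; gain or loss fitted against DMSO.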

Experiment [2] is described as follows: ATG_MRE_CIS: Attagene CIS-FACTORIAL HepG2 Assay for human Metal Responsive Element (MRE) (AID 2282954; active = hit-call score of the fitted dose curve at least 0.9, where 1 is the maximum; inactive = score below 0.9). The note with it: HepG2 MRE cis-reporter transcription, Attagene multiplex; actives raise or lower the signal. The gist of the method: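 Readout: capillary electrophoresis of 6-FAM-labelled, HpaI-digested RT-PCR reporter products. System: HepG2 cells carrying transient multiplexed cis reporters, dosed 24 h. Analysis: bidirectional fit, DMSO baseline.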

Experiment [3] addresses X-box-binding protein 1 (Homo sapiens) (UniProt P17861). Description: ATG_Xbp1_CIS: Attagene CIS-FACTORIAL HepG2 Assay for human X-box Binding Protein 1 (XBP1) (AID 2282972; active = hit-call score of the fitted dose curve at least 0.9, where 1 is the maximum; inactive = score below 0.9). The note with it: HepG2 XBP1 cis-element reporter, Attagene multiplex; actives raise or lower the signal. In short, it runs like this:
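Multiplexed cis-reporter readout in transfected HepG2 liver cells. Exposure lasted 24 hours. Activity in either direction was fitted against DMSO as negative control and baseline.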

Experiment [4] can be described thus: ATG_NRF2_ARE_CIS: Attagene CIS-FACTORIAL HepG2 Assay for human Nuclear Factor Erythroid 2 Related Factor 2 (NFR2) response to Antioxidant Response Elements (ARE) (AID 2282992; active = hit-call score of the fitted dose curve at least 0.9, where 1 is the maximum; inactive = score below 0.9;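 also: reporter mRNA level measured by RT-PCR and capillary electrophoresis fluorescence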). To be noted: HepG2 Attagene ARE/NRF2 reporter, transcription factor activity; actives raise or lower the signal. The gist of the method: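 Endogenous transcription factor activity in human liver HepG2 cells is tracked via a cis-element-driven reporter within a multiplexed set. mRNA induction is read by RT-PCR and capillary electrophoresis after 24 h, with DMSO as baseline.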

Experiment [5] can be described thus: ATG_Oct_MLP_CIS: Attagene CIS-FACTORIAL HepG2 Assay for human Octamer-Binding Transcription Factor (Oct) (AID 2282993; active = hit-call score of the fitted dose curve at least 0.9, where 1 is the maximum; inactive = score below 0.9). To be noted: HepG2 Attagene cis-factorial Oct reporter, mRNA; actives raise or lower the signal. In short, it runs like this:
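Read-out: reporter mRNA via RT-PCR plus capillary electrophoresis of 6-FAM-labelled fragments. Transiently transfected HepG2, 24 h exposure, endogenous TF activity on cis elements. Gain or loss of signal fitted relative to DMSO.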

Experiment [6] has as its target Peroxisome proliferator-activated receptor gamma (Homo sapiens) (UniProt P37231). Kind of experiment: ATG_PPARg_TRANS: Attagene TRANS-FACTORIAL HepG2 Assay for human Peroxisome Proliferator-activated Receptor-gamma (PPARg) (AID 2283007). The gist of the method:
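Gain-of-signal endpoint relative to DMSO, derived from reporter mRNA levels quantified by RT-PCR and capillary electrophoresis. Cells were HepG2 transiently expressing a chimeric NR-Gal4 construct with GAL4-UAS reporters, exposed to chemicals for 24 h.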

Experiment [7] can be described thus: BSK_SAg_Proliferation: Cell Proliferation Assessment in the BioMAP Diversity Plus: SAg Assay (AID 2283095; active = hit-call score of the fitted dose curve at least 0.9, where 1 is the maximum; inactive = score below 0.9;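 also: relative cell number as total protein by SRB absorbance in sub-confluent culture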). The note with it: primary human HUVEC with PBMC. The gist of the method:
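HUVEC/PBMC co-culture, 96-well. TCA-fixed (10%), 0.1% SRB stain, A560 at 96 h. Protein content used as viability readout; bidirectional fitting vs DMSO control.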

Experiment [8] deals with Cytochrome P450 2C19 (Homo sapiens) (UniProt P33261). Description: NVS_ADME_hCYP2C19: NovaScreen (NVS) CYP450-related Enzyme Activity (ADME) Assay for human CYP2C19 (AID 2283113).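 Also: potency for inhibition seen as loss of fluorescent signal.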 In short, it runs like this:
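Compounds first screened in duplicate at 10 uM, then confirmed in concentration series. Insect-cell-expressed human CYP2C19 turned over a fluorogenic substrate, and fluorescence was read after 1 h. Inhibition taken as signal loss relative to acetonitrile.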

Experiment [9] concerns the target human Caspase 5 (CASP5), CASP5 (gene 838) (UniProt P51878). Description: NVS_ENZ_hCASP5: NovaScreen (NVS) Enzymatic Assay for human Caspase 5 (CASP5) (AID 2283137). The gist of the method: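 Fluorescent substrate readout of CASP5 activity (loss-of-signal), measured 2 h post-dose. Protein expressed in E. coli. Primary screen duplicate at 25 uM; actives meeting threshold (e.g., 30% inhibition) rerun singleton, max 50 uM.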
Chain of UniProt P51878 (P51878 whole entry, looked up): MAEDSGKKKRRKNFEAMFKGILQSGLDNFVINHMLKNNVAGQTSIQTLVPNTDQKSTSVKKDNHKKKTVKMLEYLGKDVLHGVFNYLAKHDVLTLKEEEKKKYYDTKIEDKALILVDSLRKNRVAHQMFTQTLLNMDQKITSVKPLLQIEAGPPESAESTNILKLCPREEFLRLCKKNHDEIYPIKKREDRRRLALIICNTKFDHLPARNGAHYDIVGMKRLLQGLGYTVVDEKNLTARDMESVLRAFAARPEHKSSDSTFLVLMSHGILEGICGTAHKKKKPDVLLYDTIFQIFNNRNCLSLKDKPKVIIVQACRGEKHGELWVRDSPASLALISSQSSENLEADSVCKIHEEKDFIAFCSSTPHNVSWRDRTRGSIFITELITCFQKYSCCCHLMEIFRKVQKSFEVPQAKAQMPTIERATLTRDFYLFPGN

Experiment [10] addresses human Dual Specificity Protein Phosphatase 3 (DUSP3), DUSP3 (gene 1845) (UniProt P51452). Description: NVS_ENZ_hDUSP3: NovaScreen (NVS) Enzymatic Assay for human Dual Specificity Protein Phosphatase 3 (DUSP3) (AID 2283152).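 Also: phosphatase activity of recombinant human DUSP3 on a fluorogenic substrate without cells.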 The gist of the method:
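Cell-free fluorescence-intensity enzyme activity assay with recombinant protein and substrate; loss of signal fitted relative to DMSO baseline. Primary screen in duplicate at 25 uM, actives then run in concentration series; measured 0 h after dosing.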

Experiment [11] concerns the target human Elastase, ELANE (gene 1991) (UniProt P08246). Kind of experiment: NVS_ENZ_hElastase: NovaScreen (NVS) Enzymatic Assay for human Elastase (AID 2283153). In short, it runs like this:
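Concentration-response to 50 uM max, run singly for chemicals passing a threshold (e.g., 30% inhibition) in a duplicate 25 uM single-point screen. Neutrophil-derived human elastase, absorbance read-out of enzyme activity at 1.5 h; DMSO baseline.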

Experiment [12] has as its target human Protein Tyrosine Phosphatase Receptor Type M (PTPRM), PTPRM (gene 5797) (UniProt P28827). Description: NVS_ENZ_hPTPRM: NovaScreen (NVS) Enzymatic Assay for human Protein Tyrosine Phosphatase Receptor Type M (PTPRM) (AID 2283215). In short, it runs like this:
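Read-out is fluorescence after electrophoretic separation of substrate and product, taken 1.33 h post-dosing with recombinant enzyme. Compounds screened at 25 uM in duplicate, then concentration series for actives; activity as signal loss relative to DMSO.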

The target of experiment [13] is human Neuropeptide Receptor Y1 (NPY1), NPY1R (gene 4886) (UniProt P25929). Kind of experiment: NVS_GPCR_hNPY1: NovaScreen (NVS) G Protein-Coupled Receptor Assay for human Neuropeptide Receptor Y1 (NPY1) (AID 2283276). The gist of the method:
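Displacement of specific radioligand from NPY1 receptor of SK-N-MC origin, read by filtration and scintillation after 1 h. Compounds first tested at 25 uM in duplicate, then actives in concentration series; signal loss relative to DMSO.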

In experiment [14] the target is human Orphanin, Opioid Related Nociceptin Receptor 1 (ORL1), OPRL1 (gene 4987) (UniProt P41146). Description: NVS_GPCR_hORL1: NovaScreen (NVS) G Protein-Coupled Receptor Assay for human Orphanin, Opioid Related Nociceptin Receptor 1 (ORL1) (AID 2283283). In short, it runs like this:
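Cell-free binding using HEK293-derived receptor protein: radioligand displacement measured by filter scintillation 1 hour after dosing. Primary testing at 25 uM in duplicate, followed by singleton concentration series up to 50 uM; DMSO served as negative control.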

The target in experiment [15] is rat Neurokinin-3 Receptor (NK3), Tacr3 (gene 24808) (UniProt P16177). Kind of experiment: NVS_GPCR_rNK3: NovaScreen (NVS) G Protein-Coupled Receptor Assay for rat Neurokinin-3 Receptor (NK3) (AID 2283310). In short, it runs like this: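 Filter-based radioligand displacement on rat cortex membrane preparations, read by scintillation 2 h post-dose. Chemicals first tested in duplicate at 25 uM; actives followed up in concentration series with a 50 uM maximum.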
Chain of UniProt P16177 (P16177 whole entry, looked up): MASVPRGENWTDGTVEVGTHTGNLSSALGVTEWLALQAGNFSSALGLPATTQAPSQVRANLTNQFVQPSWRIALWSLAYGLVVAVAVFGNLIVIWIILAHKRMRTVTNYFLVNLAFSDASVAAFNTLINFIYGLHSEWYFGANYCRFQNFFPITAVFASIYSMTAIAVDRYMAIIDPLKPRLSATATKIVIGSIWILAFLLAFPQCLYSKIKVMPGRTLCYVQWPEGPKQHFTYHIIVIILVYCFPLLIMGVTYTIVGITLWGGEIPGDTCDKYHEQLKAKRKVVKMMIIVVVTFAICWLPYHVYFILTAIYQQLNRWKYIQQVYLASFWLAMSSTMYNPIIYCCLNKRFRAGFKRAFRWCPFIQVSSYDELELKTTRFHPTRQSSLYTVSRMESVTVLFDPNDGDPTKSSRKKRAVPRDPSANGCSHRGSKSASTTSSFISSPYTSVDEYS

Experiment [16] can be described thus: CCTE_Simmons_CellTiterGLO_HEK293T: Viability Assessment in CCTE's Assays for Thyroperoxidase (TPO) Inhibition, Simmons Lab (AID 2283665).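 Also: cells exposed to compound for 24 h before readout; actives reduce ATP signal below DMSO vehicle meaning cytotoxicity.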 The gist of the method: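 Luminescent ATP readout (CellTiter-Glo, 20 min at room temperature) after 24 hr exposure of HEK293T cells to 5 nM–87.5 uM final compound; signal loss relative to DMSO vehicle indicated cytotoxicity; dichlone titrated as positive control.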
(ATP-based viability assays read luminescence as a measure of living cells.)

SMILES strings stand for the structures. Inconclusive results are not listed. The calls were made as follows, unless noted: active = hit-call score of the fitted dose curve at least 0.9, where 1 is the maximum; inconclusive = response in the unintended direction; inactive = score below 0.9. For part of its entries the source gives two or more results. Only these are listed. There may be further records. Values that stand side by side repeat one measurement in other runs, samples, wells, individuals or studies. The source holds several records for some structures; these can differ, active in one and inactive in another. Marks such as (2×) say how often a value occurs here.

Chain of UniProt P51452 (P51452 whole entry, looked up): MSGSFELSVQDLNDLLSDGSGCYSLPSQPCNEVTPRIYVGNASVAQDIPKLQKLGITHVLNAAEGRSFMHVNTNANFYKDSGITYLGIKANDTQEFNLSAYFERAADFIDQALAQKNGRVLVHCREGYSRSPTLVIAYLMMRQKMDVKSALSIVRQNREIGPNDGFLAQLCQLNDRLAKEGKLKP
Chain of UniProt P25929 (P25929 whole entry, looked up): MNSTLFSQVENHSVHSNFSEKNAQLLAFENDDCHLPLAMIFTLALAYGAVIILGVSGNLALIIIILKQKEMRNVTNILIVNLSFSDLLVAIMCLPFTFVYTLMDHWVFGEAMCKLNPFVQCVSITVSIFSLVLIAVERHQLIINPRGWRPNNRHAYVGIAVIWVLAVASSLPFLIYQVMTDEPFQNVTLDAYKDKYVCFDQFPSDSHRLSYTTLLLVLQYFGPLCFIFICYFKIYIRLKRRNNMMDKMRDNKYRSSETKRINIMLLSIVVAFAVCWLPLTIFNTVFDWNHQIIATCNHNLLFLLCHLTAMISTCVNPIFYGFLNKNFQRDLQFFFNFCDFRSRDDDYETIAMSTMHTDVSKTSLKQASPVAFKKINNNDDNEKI
Chain of UniProt P33261 (P33261 whole entry, looked up): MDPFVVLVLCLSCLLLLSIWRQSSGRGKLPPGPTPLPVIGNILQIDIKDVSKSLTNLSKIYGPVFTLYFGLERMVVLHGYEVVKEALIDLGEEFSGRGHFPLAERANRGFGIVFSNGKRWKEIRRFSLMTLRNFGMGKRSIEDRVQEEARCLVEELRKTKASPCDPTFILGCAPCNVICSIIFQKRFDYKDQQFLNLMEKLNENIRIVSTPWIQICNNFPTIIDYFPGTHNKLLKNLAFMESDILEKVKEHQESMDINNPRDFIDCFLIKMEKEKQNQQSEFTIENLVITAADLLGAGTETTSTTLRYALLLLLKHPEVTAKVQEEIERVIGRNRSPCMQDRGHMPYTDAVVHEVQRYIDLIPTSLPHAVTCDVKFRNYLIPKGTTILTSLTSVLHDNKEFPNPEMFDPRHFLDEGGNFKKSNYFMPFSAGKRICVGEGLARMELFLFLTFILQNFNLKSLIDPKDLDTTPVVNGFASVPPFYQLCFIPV
Chain of UniProt P17861 (P17861 whole entry, looked up): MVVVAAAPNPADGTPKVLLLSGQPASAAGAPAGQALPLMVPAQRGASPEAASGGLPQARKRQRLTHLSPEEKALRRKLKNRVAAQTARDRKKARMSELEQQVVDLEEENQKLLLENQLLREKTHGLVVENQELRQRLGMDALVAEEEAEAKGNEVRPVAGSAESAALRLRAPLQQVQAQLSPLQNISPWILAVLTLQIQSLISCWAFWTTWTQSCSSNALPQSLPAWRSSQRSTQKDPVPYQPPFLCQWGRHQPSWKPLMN
Chain of UniProt P41146 (P41146 whole entry, looked up): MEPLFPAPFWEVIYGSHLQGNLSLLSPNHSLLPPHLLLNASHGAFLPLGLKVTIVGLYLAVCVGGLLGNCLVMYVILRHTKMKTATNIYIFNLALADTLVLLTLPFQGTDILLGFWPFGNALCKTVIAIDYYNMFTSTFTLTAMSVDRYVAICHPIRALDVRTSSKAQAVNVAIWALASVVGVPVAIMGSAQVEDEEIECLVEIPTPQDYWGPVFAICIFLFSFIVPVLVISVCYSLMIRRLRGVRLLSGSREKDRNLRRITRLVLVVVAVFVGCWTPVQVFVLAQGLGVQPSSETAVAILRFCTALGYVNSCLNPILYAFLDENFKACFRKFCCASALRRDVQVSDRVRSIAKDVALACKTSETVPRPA
Chain of UniProt P37231 (P37231 whole entry, looked up, the tested form may be a part): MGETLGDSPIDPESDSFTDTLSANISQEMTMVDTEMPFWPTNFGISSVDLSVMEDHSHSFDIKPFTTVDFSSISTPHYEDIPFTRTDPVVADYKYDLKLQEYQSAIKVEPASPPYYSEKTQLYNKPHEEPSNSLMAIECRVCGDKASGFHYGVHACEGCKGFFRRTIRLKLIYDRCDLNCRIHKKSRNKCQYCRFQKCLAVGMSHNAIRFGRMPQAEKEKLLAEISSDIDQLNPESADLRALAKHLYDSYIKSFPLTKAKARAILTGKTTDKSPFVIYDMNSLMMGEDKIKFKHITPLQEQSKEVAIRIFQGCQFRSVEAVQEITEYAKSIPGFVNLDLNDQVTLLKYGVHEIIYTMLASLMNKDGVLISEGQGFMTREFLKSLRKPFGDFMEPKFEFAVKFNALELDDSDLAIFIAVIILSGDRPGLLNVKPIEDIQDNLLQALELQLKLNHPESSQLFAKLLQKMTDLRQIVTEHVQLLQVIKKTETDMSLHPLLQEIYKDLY
Chain of UniProt P28827 (P28827 whole entry, looked up): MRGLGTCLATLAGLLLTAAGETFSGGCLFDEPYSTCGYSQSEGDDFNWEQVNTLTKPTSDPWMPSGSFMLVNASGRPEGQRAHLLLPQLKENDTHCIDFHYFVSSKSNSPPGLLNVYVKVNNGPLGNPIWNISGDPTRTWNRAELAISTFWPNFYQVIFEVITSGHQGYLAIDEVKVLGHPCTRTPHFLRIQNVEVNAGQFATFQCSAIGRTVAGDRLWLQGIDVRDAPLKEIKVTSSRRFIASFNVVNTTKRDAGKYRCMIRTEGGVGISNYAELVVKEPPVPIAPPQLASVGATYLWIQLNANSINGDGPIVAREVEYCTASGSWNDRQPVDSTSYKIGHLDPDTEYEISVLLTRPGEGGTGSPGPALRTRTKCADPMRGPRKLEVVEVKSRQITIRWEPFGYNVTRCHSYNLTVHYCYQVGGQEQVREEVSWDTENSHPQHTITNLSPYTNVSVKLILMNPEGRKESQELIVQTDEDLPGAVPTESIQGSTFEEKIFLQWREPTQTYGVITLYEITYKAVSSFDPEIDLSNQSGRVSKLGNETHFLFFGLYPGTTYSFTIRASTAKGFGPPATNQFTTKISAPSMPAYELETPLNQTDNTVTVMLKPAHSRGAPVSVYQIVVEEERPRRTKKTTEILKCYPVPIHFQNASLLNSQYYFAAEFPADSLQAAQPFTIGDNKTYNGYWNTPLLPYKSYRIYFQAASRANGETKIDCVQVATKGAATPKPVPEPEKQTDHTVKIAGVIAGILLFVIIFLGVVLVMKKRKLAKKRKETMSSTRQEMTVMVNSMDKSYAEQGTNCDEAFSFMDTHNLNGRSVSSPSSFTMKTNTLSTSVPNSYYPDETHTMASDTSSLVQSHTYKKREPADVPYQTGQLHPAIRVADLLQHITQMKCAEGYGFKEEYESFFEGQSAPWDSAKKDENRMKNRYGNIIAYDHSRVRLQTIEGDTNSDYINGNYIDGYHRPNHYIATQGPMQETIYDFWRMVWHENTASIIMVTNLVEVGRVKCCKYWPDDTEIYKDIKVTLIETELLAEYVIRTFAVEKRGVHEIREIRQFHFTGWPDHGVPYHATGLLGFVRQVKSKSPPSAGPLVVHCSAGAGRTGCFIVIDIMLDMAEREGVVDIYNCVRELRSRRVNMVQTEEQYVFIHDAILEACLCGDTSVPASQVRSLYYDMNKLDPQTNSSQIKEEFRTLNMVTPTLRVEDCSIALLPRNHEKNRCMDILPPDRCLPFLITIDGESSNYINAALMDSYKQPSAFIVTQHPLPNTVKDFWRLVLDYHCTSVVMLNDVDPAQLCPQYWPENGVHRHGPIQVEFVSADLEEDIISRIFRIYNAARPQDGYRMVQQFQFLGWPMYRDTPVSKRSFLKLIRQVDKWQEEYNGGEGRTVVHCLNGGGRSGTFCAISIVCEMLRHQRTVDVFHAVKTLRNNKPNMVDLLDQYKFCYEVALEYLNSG
Chain of UniProt P08246 (P08246 whole entry, looked up): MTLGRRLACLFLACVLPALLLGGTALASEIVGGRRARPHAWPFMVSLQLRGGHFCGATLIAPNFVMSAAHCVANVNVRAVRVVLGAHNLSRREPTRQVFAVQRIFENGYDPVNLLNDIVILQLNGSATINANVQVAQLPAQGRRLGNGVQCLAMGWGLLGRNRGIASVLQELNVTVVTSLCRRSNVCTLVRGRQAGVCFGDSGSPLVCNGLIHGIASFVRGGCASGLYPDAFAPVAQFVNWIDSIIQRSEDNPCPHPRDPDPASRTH

For `S=C(S)NCCNC(=S)S.[Mn+2].[S-]C([S-])=NCCN=C([S-])[S-].[Zn+2]`, the AC50 – broadly, the concentration at which the activity in the assay is half-maximal – in experiment [1] is “active: 635 nM, 1.76 µM, 713 nM, 487 nM [separate samples]”; in [2], “active: 12.3, 50, 22.4, 28.7 µM [separate samples]”; in experiment [3], “active: 447 nM, 1.88 µM, 2.05 µM, 9.71 µM, 979 nM [separate samples]”; in [4] it was “active: 13.7, 5.33, 3.64, 8.8, 9.92 µM [separate samples]”; in experiment [5] it was “active: 410 nM, 1.19 µM, 3.9 µM, 583 nM [separate samples]”; in experiment [6], “active: 15.3, 14.2, 50, 22.9 µM [separate samples]”. Besides, the AC50 result was “active: 2.5, 6.57, 6.63, 3.21, 25.3 µM [separate samples]” in [7]; “active: 990 nM, 2.65 µM, 2.79 µM, 2.42 µM, 2.32 µM, 3.49 µM, 6.82 µM [separate samples]” in experiment [8]; “active: 5.28 µM, 4.59 µM, 4.75 µM, 883 nM, 2.29 µM, 1.51 µM, 4.14 µM [separate samples]” in experiment [9]; “active: 1.4 µM, 5.62 µM, 12.5 µM, 3.3 µM, 7.09 µM, 4.32 µM, 19.8 nM [separate samples]” in experiment [10]; “active: 2.6, 3.49, 10.5, 2.87, 1.62, 6.84 µM [separate samples]” in experiment [11]; “active: 3.57 µM, 845 nM, 5.28 µM, 10.1 µM [separate samples]” in experiment [12]. Further, the AC50 result was “active: 4.59, 4.75, 4.16, 13 µM [separate samples]” in [13]; “active: 513 nM, 163 nM, 6.42 µM, 617 nM, 12.5 µM, 8.53 µM, 2.23 µM [separate samples]” in experiment [14]; “active: 3.6, 5.29, 7.18, 3.7 (2×), 25 µM [separate samples]” in [15]; “active: 21.9, 31.4, 2.48, 41.7, 41.8 µM [separate samples]” in [16].
